# Measurements reported in the supplement of paper PMC3334620.
# Over roughly 33,000 sequences, “E-score (-0.5 to 0.5)” has its median near -0.017; the highest 2% begin near 0.3. The list shows a part of the results.
# Biological target: T1, Sut1 (UniProt P53032)
# T1 sequence: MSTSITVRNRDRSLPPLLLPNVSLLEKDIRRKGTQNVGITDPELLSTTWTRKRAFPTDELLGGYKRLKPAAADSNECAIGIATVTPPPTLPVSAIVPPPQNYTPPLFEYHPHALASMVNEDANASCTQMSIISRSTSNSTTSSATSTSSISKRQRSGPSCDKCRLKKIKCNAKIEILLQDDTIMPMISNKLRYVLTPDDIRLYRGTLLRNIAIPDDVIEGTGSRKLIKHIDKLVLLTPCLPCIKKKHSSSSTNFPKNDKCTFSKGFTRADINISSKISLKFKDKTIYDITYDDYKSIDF
# Test: PBM E-score (8-mer binding enrichment) (E-score (-0.5 to 0.5)); higher = stronger / more preferred TF binding; most listed sequences are background and not binding sites
# Settings: protein concentration: 200 nM; construct: GST-full length
# In short: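 Universal all-10-mer Agilent arrays, double-stranded by primer extension on fresh or once-stripped slides, were probed with about 100-200 nM GST-tagged yeast transcription factors made by PURExpress. Fluorescent anti-GST detected bound protein, and masliner normalised the scans. E-scores from the Universal PBM Analysis Suite were given to each ungapped eight-base word pooled with its reverse complement.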
row,Sequence,PBM E-score
1,AGCTGGAC,-0.0896
2,ACCGACCT,-0.17
3,CCCTAGTA,-0.126
4,CTCCACGC,-0.169
5,CGCTCGAG,0.07
6,AGGGTGGC,-0.163
7,GCGTCCCC,-0.231
8,CATGGTGA,-0.101
9,ACTCGCCT,-0.167
10,CTACTCCA,0.0836
11,GACTGAGA,0.0525
12,GCTACTTA,-0.00021
13,ATGGCGTA,-0.14
14,ACTAACGG,0.167
15,GATAACAA,0.205
16,GATGGCCC,-0.352
17,GAAGACTA,0.0633
18,AACCTAAT,0.0281
19,AAGCCAGA,0.0326
20,CTGCCTGA,-0.0674
21,AATATGAA,0.19
22,ATTCCGCG,0.18
23,ACTACCGA,-0.114
24,GTATCGGA,0.281
25,ACACGAAT,0.138

row,Sequence,PBM E-score
1,CAGCTCGG,-0.0612
2,GTAGAATA,0.198
3,GGACGCAC,-0.205
4,CTAGCAAC,0.0225
5,ACGTGACG,-0.0786
6,TCCACGCA,0.0378
7,ATCACAAT,0.0675
8,CACGGAAA,0.188
9,GAGTCCGC,0.282
10,TAGATGGA,-0.134
11,CCACAGCC,-0.273
12,CCCAGTCC,-0.0863
13,CCCACTGA,-0.239
14,ACGGACAT,0.404
15,AGCAGACA,-0.348
16,CACAAAGG,-0.0165
17,GGGTGTAA,0.0141
18,AATTCAAA,0.283
19,ACCAAGGG,-0.128
20,ATAGTCAA,0.09
21,AGGGTGCC,-0.347
22,GGTCGCGA,-0.12
23,CTCCAGAG,-0.228
24,GTGACATA,0.0538
25,AGGACTGG,-0.221

row,Sequence,PBM E-score
1,CCTCCTAG,-0.325
2,ACCTAATA,0.162
3,ATCCTAAA,0.0773
4,GGACATGA,0.192
5,GCAAGTCA,-0.0534
6,ACTGACAA,0.0597
7,ACAACTAA,0.286
8,CCAGAAGG,-0.238
9,GTGCTTAA,0.117
10,ATCGTCAC,-0.136
11,TAGGATAA,0.189
12,CGCTAACC,-0.214
13,GACCTCCC,-0.211
14,ACATTTTC,0.135
15,TCGGGGCA,-0.0853
16,TCATCGGA,0.395
17,ACACGATG,-0.153
18,AGGAAGAC,-0.15
19,GCATTAAC,-0.0101
20,ACGCCTCA,-0.212
21,ATCGGCGC,-0.0591
22,GGTATAAC,0.0479
23,AAATAAGG,0.0902
24,AGCTCCAC,-0.0851
25,CACCAGAG,-0.364

row,Sequence,PBM E-score
1,TAGCGACA,0.0395
2,GCGCCCGA,-0.17
3,GTTACTTA,0.194
4,AGTTTTAG,0.132
5,AAGACGCA,0.063
6,CGTCTTGA,0.0919
7,ACGATGGC,-0.022
8,AACAGAAA,0.156
9,GTACACAA,-0.0364
10,GTACAACA,0.226
11,CATGCCGG,0.139
12,ATACATGC,0.0744
13,CGCGTTCA,0.0695
14,CTATGACA,-0.0401
15,GCAGGAAC,-0.135
16,ATGGTTTA,0.139
17,CCATTATA,0.135
18,CTCGTTGC,-0.0613
19,TACTGGGA,0.0127
20,ACCCGAGG,-0.246
21,AGCGAGGG,-0.263
22,CGAAAGAA,0.229
23,AGTGCGAC,-0.175
24,TGTGTTAA,0.193
25,CTCTTGTC,-0.00402

row,Sequence,PBM E-score
1,AGATTTAG,0.087
2,TACATTAA,0.266
3,GTGTAATA,0.202
4,ATGGCCAA,-0.0795
5,GCGGGCCA,-0.155
6,CAAGGGCA,-0.285
7,ACGCCATC,-0.164
8,ATGAGACC,-0.00164
9,ATCAAAGG,-0.0488
10,CCACCGAA,0.0255
11,ATTCATGA,-0.0184
12,ACATGGTA,0.037
13,AATTATCC,0.1
14,CTAAGAAG,0.119
15,GAGCGACC,0.0209
16,CAAACCCA,0.0595
17,CGGACAAG,0.22
18,CACTCCCG,-0.0356
19,AACACGCC,-0.068
20,GGATAAGA,-0.0157
21,AGTAAATC,0.117
22,AAGATTGA,0.0669
23,GAAATGTC,-0.0171
24,CGTATCCA,-0.0901
25,GAATAGTA,0.215

row,Sequence,PBM E-score
1,ACTGAGAA,-0.149
2,GCAACCCC,0.0182
3,ACGGACTC,0.393
4,CGGGATTA,0.202
5,ATAAATGG,0.067
6,ATGACGAG,-0.12
7,ACATTTAT,0.135
8,GCTCTTTA,0.121
9,ACCCACGT,-0.0719
10,CTCTCTGC,-0.104
11,AAACGGTA,0.0446
12,AGCATTAG,-0.0752
13,ATCGTTGA,-0.0646
14,CACCTTAG,-0.129
15,ATCGTCAA,0.111
16,AGCACGCT,-0.279
17,ACTCTACA,-0.146
18,CACTCCGA,0.471
19,TCCATGCA,-0.025
20,CTTACGTC,-0.17
21,TCATTAAA,0.315
22,AAAGGTCG,-0.0989
23,GTTATGGA,0.135
24,CTTAGTAA,0.101
25,TCTTAAAA,0.111

row,Sequence,PBM E-score
1,ACGAAGGA,0.0241
2,ACTGTAGG,0.0472
3,AGCTGTAT,-0.0697
4,GGACGCGA,-0.0957
5,CCGCTAGC,-0.104
6,TAGCAACA,0.124
7,ACCTTACC,0.0475
8,GAATAGCC,-0.0454
9,GAAGGACC,-0.0389
10,ACGGCGTG,-0.0512
11,AGTGGTTG,0.0807
12,CGAGTTTC,0.0659
13,AATAGGCA,0.0103
14,GAGGCTAC,-0.349
15,ATGAACAA,0.134
16,AACAGCGA,-0.19
17,CGAATGTC,0.0601
18,AGTGCTTG,-0.0475
19,AACATACG,0.00839
20,CTCTCCTA,-0.0385
21,ATTTGCCG,0.126
22,ACCAATAG,-0.115
